# Test results published in the supplement of paper PMC8728848.
# The other results are listed elsewhere or left out.
# How the values were obtained:
# Assay in all cases: glycan array binding signal (z-score within array); higher = stronger binding
# Details in all cases: glycan notation: IUPAC condensed, linker removed
# [1] = molecular target: Gal(b1-4)GalNAc(b1-3)[Fuc(a1-2)]Gal(b1-4)GlcNAc
# In short: (§1)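 Arrays were curated from the Consortium for Functional Glycomics database, 3228 in total, and kept only where the protein sequence was available. Binding is expressed as a within-array Z-score. This score was averaged across arrays of the same protein sequence at different concentrations or buffers and across linkers, and negative values can be read as non-binding.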
# Gal(b1-4)Glc = molecular target: Gal(b1-4)Glc
# In short: as §1
# Gal(b1-4)Glc6S = molecular target: Gal(b1-4)Glc6S
# In short: as §1
# Gal(b1-4)GlcNAc = molecular target: Gal(b1-4)GlcNAc
# In short: as §1
# [2] = molecular target: Gal(b1-4)GlcNAc(a1-6)Gal(b1-4)GlcNAc
# In short: as §1
# Gal(b1-4)GlcNAc(b1-2)Man = molecular target: Gal(b1-4)GlcNAc(b1-2)Man
# In short: as §1
# [3] = molecular target: Gal(b1-4)GlcNAc(b1-2)Man(a1-3)Man(b1-4)GlcNAc(b1-4)GlcNAc
# In short: as §1
# [4] = molecular target: Gal(b1-4)GlcNAc(b1-2)Man(a1-3)[Gal(b1-4)GlcNAc(b1-2)Man(a1-6)]Man(b1-4)GlcNAc(b1-4)GlcNAc
# In short: as §1
# [5] = molecular target: Gal(b1-4)GlcNAc(b1-2)Man(a1-3)[Gal(b1-4)GlcNAc(b1-2)Man(a1-6)]Man(b1-4)GlcNAc(b1-4)[Fuc(a1-6)]GlcNAc
# In short: as §1
# [6] = molecular target: Gal(b1-4)GlcNAc(b1-2)Man(a1-3)[Gal(b1-4)GlcNAc(b1-2)Man(a1-6)][Gal(b1-4)GlcNAc(b1-4)]Man(b1-4)GlcNAc(b1-4)[Fuc(a1-6)]GlcNAc
# In short: as §1
# [7] = molecular target: Gal(b1-4)GlcNAc(b1-2)Man(a1-3)[Gal(b1-4)GlcNAc(b1-2)Man(a1-6)][GlcNAc(b1-4)]Man(b1-4)GlcNAc(b1-4)[Fuc(a1-6)]GlcNAc
# In short: as §1
# [8] = molecular target: Gal(b1-4)GlcNAc(b1-2)Man(a1-3)[GlcNAc(b1-2)Man(a1-6)]Man(b1-4)GlcNAc(b1-4)GlcNAc
# In short: as §1
# [9] = molecular target: Gal(b1-4)GlcNAc(b1-2)Man(a1-3)[GlcNAc(b1-4)][Gal(b1-4)GlcNAc(b1-2)Man(a1-6)]Man(b1-4)GlcNAc(b1-4)GlcNAc
# In short: as §1
# [10] = molecular target: Gal(b1-4)GlcNAc(b1-2)Man(a1-3)[Man(a1-6)]Man(b1-4)GlcNAc(b1-4)GlcNAc
# In short: as §1
# [11] = molecular target: Gal(b1-4)GlcNAc(b1-2)Man(a1-6)Man(b1-4)GlcNAc(b1-4)GlcNAc
# In short: as §1
# [12] = molecular target: Gal(b1-4)GlcNAc(b1-2)Man(a1-6)[GlcNAc(b1-2)Man(a1-3)]Man(b1-4)GlcNAc(b1-4)GlcNAc
# In short: as §1
# [13] = molecular target: Gal(b1-4)GlcNAc(b1-2)Man(a1-6)[Man(a1-3)]Man(b1-4)GlcNAc(b1-4)GlcNAc
# In short: as §1
# [14] = molecular target: Gal(b1-4)GlcNAc(b1-2)[Gal(b1-4)GlcNAc(b1-4)]Man(a1-3)[Gal(b1-4)GlcNAc(b1-2)Man(a1-6)]Man(b1-4)GlcNAc(b1-4)GlcNAc
# In short: as §1
# [15] = molecular target: Gal(b1-4)GlcNAc(b1-2)[Gal(b1-4)GlcNAc(b1-4)]Man(a1-3)[Gal(b1-4)GlcNAc(b1-2)[Gal(b1-4)GlcNAc(b1-6)]Man(a1-6)]Man(b1-4)GlcNAc(b1-4)GlcNAc
# In short: as §1
# [16] = molecular target: Gal(b1-4)GlcNAc(b1-2)[Gal(b1-4)GlcNAc(b1-4)]Man(a1-3)[GlcNAc(b1-4)][Gal(b1-4)GlcNAc(b1-2)Man(a1-6)]Man(b1-4)GlcNAc(b1-4)GlcNAc
# In short: as §1
# [17] = molecular target: Gal(b1-4)GlcNAc(b1-2)[Gal(b1-4)GlcNAc(b1-4)]Man(a1-3)[GlcNAc(b1-4)][Gal(b1-4)GlcNAc(b1-2)[Gal(b1-4)GlcNAc(b1-6)]Man(a1-6)]Man(b1-4)GlcNAc(b1-4)GlcNAc
# In short: as §1
# [18] = molecular target: Gal(b1-4)GlcNAc(b1-2)[Gal(b1-4)GlcNAc(b1-6)]Man(a1-6)[Gal(b1-4)GlcNAc(b1-2)Man(a1-3)]Man(b1-4)GlcNAc(b1-4)GlcNAc
# In short: as §1
binder,measurement,setting,value
"HBHA-Rv (Mycobacterium tuberculosum), P0A5P6 (protein) MAENSNIDDIKAPLLAALGAADLALATVNELITNLRERAEETRTDTRSRVEESRARLTKLQEDLPEQLTELREKFTAEELRKAAEGYLEAATSRYNELVERGEAALERLRSQQSFEEVSARAEGYVDQAVELTQEALGTVASQTRAVGERAAKLVGIELPKKAAPAKKAAPAKKAAPAKKAAAKKAPAKKAAAKKVTQK",glycan array binding signal (z-score),[1],-0.175
same,glycan array binding signal (z-score),Gal(b1-4)Glc,0.046
same,glycan array binding signal (z-score),Gal(b1-4)Glc6S,0.036
same,glycan array binding signal (z-score),Gal(b1-4)GlcNAc,-0.196
same,glycan array binding signal (z-score),[2],-0.438
same,glycan array binding signal (z-score),Gal(b1-4)GlcNAc(b1-2)Man,1.37
same,glycan array binding signal (z-score),[3],-0.235
same,glycan array binding signal (z-score),[4],0.061
same,glycan array binding signal (z-score),[5],-0.196
same,glycan array binding signal (z-score),[6],-0.434
same,glycan array binding signal (z-score),[7],-0.352
same,glycan array binding signal (z-score),[8],-0.447
same,glycan array binding signal (z-score),[9],-0.309
same,glycan array binding signal (z-score),[10],0.103
same,glycan array binding signal (z-score),[11],-0.316
same,glycan array binding signal (z-score),[12],-0.224
same,glycan array binding signal (z-score),[13],-0.334
same,glycan array binding signal (z-score),[14],-0.439
same,glycan array binding signal (z-score),[15],-0.315
same,glycan array binding signal (z-score),[16],-0.349
same,glycan array binding signal (z-score),[17],-0.455
same,glycan array binding signal (z-score),[18],-0.359
